From publication PMC4336329 (PLoS ONE, 2015)
About 14,000 (4.5%) of roughly 310,000 compounds showed an effect of 50% or more. The effect is printed as a negative number. This is one part of the list.

biological target: human ether-à-go-go-related gene (hERG) potassium channel (human, UniProt Q12809); assay: primary screen, population patch clamp on CHO cells stably expressing hERG
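Further: peak tail current of the secondary pulse compared with the same well before compound.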

Sequence of human ether-à-go-go-related gene (hERG) potassium channel (Q12809 whole entry, looked up): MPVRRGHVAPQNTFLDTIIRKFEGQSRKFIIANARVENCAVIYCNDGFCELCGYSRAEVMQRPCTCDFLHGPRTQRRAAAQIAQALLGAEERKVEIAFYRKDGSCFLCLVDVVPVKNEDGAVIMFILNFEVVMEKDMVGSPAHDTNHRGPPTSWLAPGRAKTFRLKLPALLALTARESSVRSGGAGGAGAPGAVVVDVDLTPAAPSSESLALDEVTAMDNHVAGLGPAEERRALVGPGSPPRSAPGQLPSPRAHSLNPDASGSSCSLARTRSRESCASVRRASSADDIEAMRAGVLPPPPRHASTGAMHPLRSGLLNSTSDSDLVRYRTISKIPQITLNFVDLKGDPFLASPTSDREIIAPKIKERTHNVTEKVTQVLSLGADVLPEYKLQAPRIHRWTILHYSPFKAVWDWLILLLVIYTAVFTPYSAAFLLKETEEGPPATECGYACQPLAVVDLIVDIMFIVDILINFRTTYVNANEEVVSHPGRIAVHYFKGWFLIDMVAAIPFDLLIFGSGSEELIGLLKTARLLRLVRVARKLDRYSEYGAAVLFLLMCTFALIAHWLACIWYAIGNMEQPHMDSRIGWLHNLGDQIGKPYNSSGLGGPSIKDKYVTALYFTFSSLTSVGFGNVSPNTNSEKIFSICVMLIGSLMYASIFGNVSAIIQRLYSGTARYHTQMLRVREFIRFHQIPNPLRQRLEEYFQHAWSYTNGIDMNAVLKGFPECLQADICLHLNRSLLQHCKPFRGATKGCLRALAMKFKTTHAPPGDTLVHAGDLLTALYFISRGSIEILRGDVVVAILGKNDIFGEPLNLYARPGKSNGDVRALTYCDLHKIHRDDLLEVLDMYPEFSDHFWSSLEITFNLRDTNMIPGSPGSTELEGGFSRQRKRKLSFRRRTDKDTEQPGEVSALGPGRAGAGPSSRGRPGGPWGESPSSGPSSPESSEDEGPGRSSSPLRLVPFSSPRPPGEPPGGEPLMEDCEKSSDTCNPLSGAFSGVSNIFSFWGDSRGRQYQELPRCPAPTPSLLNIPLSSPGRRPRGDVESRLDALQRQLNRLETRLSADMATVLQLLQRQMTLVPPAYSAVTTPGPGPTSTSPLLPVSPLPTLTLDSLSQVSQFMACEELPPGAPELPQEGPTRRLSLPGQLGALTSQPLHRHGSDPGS

Compound	hERG current change (%, negative = inhibition) at 10uM [%]
COc1ccc(N2CCN(c3ncnc4sc(C(=O)NCC5CCCO5)c(C)c34)CC2)cc1 (stereo not shown)	-63.4
COc1ccc(CN2CCN(c3ccccc3F)CC2)cc1O	-66.5
CCn1c(SCC(=O)N2CCc3ccccc32)nnc1-c1ccco1	1.79
C=C[C@@H]1c2ccccc2N(S(=O)(=O)c2ccc(C)cc2)[C@H](c2ccccc2C(F)(F)F)C1(C#N)C#N	20.2
COc1ccc(Cl)cc1NC(=O)C(C)N1CCc2ccccc21 (stereo not shown)	23.9
CCN(CC)CCn1c2c(c(SCC(=O)Nc3ccc(C)c(F)c3)nc1=O)CCC2	-63.8
CCOc1ccc(CCNC(=O)COC(=O)c2ccc(C)s2)cc1OCC	14.6
COc1cccc(NC(=O)Nc2cccc(C)n2)c1	30.1
COc1ccc(C(=O)c2oc3ccc(OC)cc3c2NC(C)=O)cc1	27.6
CC1CCCN(c2ncnc3c2cnn3-c2ccccc2)C1 (stereo not shown)	-1.2
COC(=O)c1cc(S(=O)(=O)NCCc2sccc2C)c[nH]1	2.8
COc1ccc(OC)c(-c2csc(NC(=O)Cc3cc(OC)c(OC)c(OC)c3)n2)c1	13
Cc1ccc(-c2nc(CS(=O)CC(=O)NC3CC3)c(C)o2)cc1 (stereo not shown)	6.39
Cc1ccc(OCC(=O)N(Cc2ccccc2)C2CCS(=O)(=O)C2)c([N+](=O)[O-])n1 (stereo not shown)	-12.1
N/C(=N\OC(=O)c1ccc(Cl)cc1Cl)c1ccccn1	-4.07
COC(=O)c1ccccc1S(=O)(=O)NCc1nc2nc(C)cc(C)n2n1	7.78
Cc1ccc(-n2nc(C)c3c(C)onc3c2=O)cc1	21.6
COc1ccc(N2CCOCC2)c(NC(=O)c2cc3ccccc3o2)c1	11.6
CCn1c(C)cc2c(c1=O)C(c1ccccc1Br)C(C#N)=C(N)O2 (stereo not shown)	0.963
Cc1cc(C)c(C(=O)Nc2cccc(F)c2)c(Cl)n1	-21.9
COC(=O)[C@H](C)NC(=O)Nc1cc(Cl)ccc1C	14.3
O=C(CCC(=O)OCc1ccc(C(=O)Oc2ccccc2)cc1)Nc1cccc2ccccc12	-4.75

Compound	hERG current change (%, negative = inhibition) at 10uM [%]
O=S(=O)(NCCC1CC1(Cl)Cl)c1ccc(Cl)cc1 (stereo not shown)	1.44
CCN(CCCNC(=O)CNC(=O)c1nn(-c2ccc(OC)cc2OC)c(=O)c2ccccc12)c1cccc(C)c1	-20
Cc1cccc(-n2c(CNC(=O)c3cccc([N+](=O)[O-])c3C)n[nH]c2=S)c1	27.4
CC12CC[C@H]3[C@@H](CCC4(O)C[C@H](O)CCC34/C=N/NC(=O)c3ccccc3Cl)C1(O)CCC2C1=CC(=O)OC1 (stereo partly shown)	9.69
CCCCOC(=O)CSc1nnc(N)s1	-3.51
Nc1ccc(-n2c(N)c(C(=O)NCc3ccc4c(c3)OCO4)c3nc4ccccc4nc32)cc1	5.95
CCCC(=O)Nc1nnc(CCc2ccccc2)s1.Cl	-1.14
COc1ccccc1CNC(=O)c1ccc(NS(=O)(=O)c2cccs2)cc1	-18.6
O=Cc1ccc(OCCOc2ccc([N+](=O)[O-])cc2)cc1	6.17
Cc1ccc(C)c(C(=O)CCC(=O)NCc2ccc(Cl)cc2)c1	-7.22
CSCCC(NC(=O)COc1ccccc1)C(=O)N1CC(C)CC(C)C1 (stereo not shown)	-41.4
COc1ccc(N2CCN(CCNC(=O)C3CC(=O)N(C4CCCC4)C3)CC2)cc1 (stereo not shown)	-2.62
CC1(C)NC(=O)N(CC(=O)N2CCN(c3cccc(Cl)c3)CC2)C1=O	-6.67
CCn1nc(NS(=O)(=O)c2ccc(NC(C)=O)cc2)c2cc3ccccc3nc21	15.1
Cc1ccc(/C(N)=N/OC(=O)CN(C)S(=O)(=O)c2ccc(C)cc2)cc1	-3
CN(C(=O)COC(=O)/C=C/c1ccc2ccccc2n1)C1CCS(=O)(=O)C1 (stereo not shown)	12.7
Cc1c(Cl)cc(-n2cnnn2)cc1[N+](=O)[O-]	10.3
O=c1[nH]c(=O)n(Cc2ccco2)c(O)c1C=NCCN1CCOCC1	12.9
O=c1cc(-c2ccccc2)c2ccc(O)cc2o1	-24.4
CCOc1ccccc1N=Nc1c(C)[nH]n(C(N)=S)c1=O	27.8
CCOCCCNC(=O)c1cc2c(=O)[nH]c3ccccc3c2s1	11.8
